The whole screen tested about 310,000 compounds, of which about 2,200 (0.71%) showed an effect of 50% or more. Effects have a minus sign here. Some of the results follow.
biological target: human ether-à-go-go-related gene (hERG) potassium channel (human, UniProt Q12809); experiment: primary screen, population patch clamp on CHO cells stably expressing hERG
Sequence (Q12809 whole entry, looked up): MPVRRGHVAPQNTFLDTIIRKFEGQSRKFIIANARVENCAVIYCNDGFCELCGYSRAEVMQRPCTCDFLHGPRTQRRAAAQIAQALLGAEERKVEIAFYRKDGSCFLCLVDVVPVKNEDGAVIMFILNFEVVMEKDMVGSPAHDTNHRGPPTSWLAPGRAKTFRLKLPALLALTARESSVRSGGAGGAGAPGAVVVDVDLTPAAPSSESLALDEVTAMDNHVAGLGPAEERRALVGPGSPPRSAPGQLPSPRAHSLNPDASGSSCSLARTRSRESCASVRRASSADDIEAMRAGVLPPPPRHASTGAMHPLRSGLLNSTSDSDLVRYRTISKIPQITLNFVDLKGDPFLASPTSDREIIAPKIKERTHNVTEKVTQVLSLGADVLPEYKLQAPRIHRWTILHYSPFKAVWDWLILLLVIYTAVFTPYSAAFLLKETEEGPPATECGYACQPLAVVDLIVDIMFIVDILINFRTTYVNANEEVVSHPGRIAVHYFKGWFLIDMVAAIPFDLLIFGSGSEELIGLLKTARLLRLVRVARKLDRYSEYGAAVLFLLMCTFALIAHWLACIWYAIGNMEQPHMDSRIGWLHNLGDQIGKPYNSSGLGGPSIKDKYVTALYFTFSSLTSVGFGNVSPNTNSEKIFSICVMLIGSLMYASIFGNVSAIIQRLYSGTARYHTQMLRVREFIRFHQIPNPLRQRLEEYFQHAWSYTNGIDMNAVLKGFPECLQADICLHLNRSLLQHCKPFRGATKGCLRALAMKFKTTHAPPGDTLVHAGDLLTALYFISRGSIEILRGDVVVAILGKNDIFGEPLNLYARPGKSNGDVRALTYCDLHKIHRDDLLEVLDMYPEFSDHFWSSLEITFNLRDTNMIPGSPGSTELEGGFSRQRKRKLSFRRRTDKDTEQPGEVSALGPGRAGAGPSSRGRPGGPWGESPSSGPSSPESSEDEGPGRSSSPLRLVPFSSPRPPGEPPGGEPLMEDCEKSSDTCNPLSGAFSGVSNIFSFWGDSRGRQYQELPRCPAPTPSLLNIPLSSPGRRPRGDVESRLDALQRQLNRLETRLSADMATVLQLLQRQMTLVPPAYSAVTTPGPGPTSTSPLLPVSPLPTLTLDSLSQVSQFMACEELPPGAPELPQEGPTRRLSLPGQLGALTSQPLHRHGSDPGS

Row | SMILES | hERG current change (%, negative = inhibition) at 1uM
1 | Cc1c(C(=O)N2c3ccccc3CC2C)oc2ccccc12 (stereo not shown) | 13.6%
2 | CCc1ccc(N(C(=O)C(F)(F)F)C(C(=O)NC2CCCCC2)c2ccncc2)cc1 (stereo not shown) | 16.7%
3 | CCOc1ccc(NC(=O)C(CC(=O)O)Cc2ccc(Br)cc2)cc1 (stereo not shown) | 19.8%
4 | COc1ccc(CNC(=O)C2=CCN(S(=O)(=O)c3ccc(C)cc3)CC2)cc1 | -5.06%
5 | Cn1c(=O)[nH]c(=O)c2c1nc(N1CCOCC1)n2CCCSc1ncccn1 | 6.15%
6 | COc1ccc(NC(=O)CN(C)C(=O)c2cc(-c3ccc(C)o3)nc3ccccc23)cc1 | 2.81%
7 | COc1ccc(OCC(=O)Nc2ccc3nc(C)sc3c2)cc1 | 12.8%
8 | CN(C)CCNC(=O)c1ccc2c(=O)n(Cc3ccc(Cl)cc3)c(=S)[nH]c2c1 | 6.22%
9 | Cc1ccc(NCCC(=O)c2ccc(Br)cc2)cc1 | 8.22%
10 | Cn1cc(S(=O)(=O)Nc2ccc3c(c2)OCCO3)cn1 | 1.33%
11 | CC(C)(C)c1ccc(C(=O)NNC(=O)c2ccccc2Br)cc1 | 6.86%
12 | Br.CCC(C)N1Cc2ccccc2C1=N (stereo not shown) | 6.83%
13 | Cc1cccc(NC(=O)c2cc3n(n2)C(C(F)(F)F)CC(c2ccc4c(c2)OCO4)N3)c1 (stereo not shown) | 6.41%
14 | COc1cc(OC)cc(C(=O)Nc2cccc(NC(C)=O)c2)c1 | 4.71%
15 | CCOC(=O)c1cnc2c(C#N)c(C)nn2c1-c1ccccc1 | 7.49%
16 | CCCc1ccc(-c2cc(C(=O)NCCc3ccc(S(N)(=O)=O)cc3)c3ccccc3n2)cc1 | 16.3%
17 | COc1ccc(CCNC(=O)c2cc(S(=O)(=O)N(C)C)ccc2N2CCCC2)cc1OC | 12.4%
18 | COc1ccccc1N1CCN(CC(O)COc2cccc3ccccc23)CC1.Cl.O (stereo not shown) | -19.3%
19 | Cc1ccc(-c2nn(-c3ccccc3)cc2C(=O)N2CCOCC2)cc1C | 5.14%
20 | CCC(=O)N(CCc1ccc(OC)c(OC)c1)Cc1cc2ccc(C)cc2n2nnnc12 | -19.5%
21 | O=C(CSc1ncnc2ccccc12)Nc1ccc2c(c1)OCO2 | 3.76%
22 | CCOC(=O)c1c(C)[nH]c(C2=NNC(=NC3CC3)SC2)c1C | -2.95%

Row | SMILES | hERG current change (%, negative = inhibition) at 1uM
23 | COc1ccccc1Oc1ncnc2sccc12 | -1.96%
24 | COCCNC(=O)C(c1ccc(C)o1)N(C(=O)C(=O)NC1CCCCC1)c1ccc(F)cc1 (stereo not shown) | 8.36%
25 | Cc1nc2ccc(Br)cn2c1C(=O)N/N=C\c1ccccc1Cl | 9.4%
26 | CCS(=O)c1ccccc1C(=O)OC(C)C(=O)Nc1ccc(S(=O)(=O)N2CCCC2)cc1 (stereo not shown) | 16.7%
27 | Cc1ccc(-n2c(C)c([N+](=O)[O-])c3ccc(O)c(CN(C)C)c32)cc1 | -2.89%
28 | CCOC(=O)c1cc(-c2ccccc2)sc1NC(=O)c1ccc(OC)cc1 | 16.6%
29 | NS(=O)(=O)c1ccc2nc(NC(=O)Nc3ccccc3F)sc2c1 | 10.7%
30 | COC(=O)C(C)n1cnc2c(nnn2-c2ccccc2)c1=O (stereo not shown) | 0.753%
31 | Cc1nc(N)sc1N=Nc1c(C)n(C)n(-c2ccccc2)c1=O | -6.04%
32 | COc1ccc(Cc2nc3ccc(C(=O)N4CCCN(C=O)CC4)cc3o2)cc1 | 13.4%
33 | CCOC(=O)c1cc(NC(=O)c2cnccn2)cc(C(=O)OCC)c1 | -7.09%
34 | CCCc1nc(SCC(=O)NC2CCCC2)c2ccccc2n1 | 8.44%
35 | COc1ccccc1CC(=O)Nc1ccc(S(=O)(=O)N2CC(C)CC(C)C2)cc1 (stereo not shown) | 8.79%
36 | O=C(CCNS(=O)(=O)c1ccccc1F)N1CCN(Cc2ccccc2)CC1 | 8.79%
37 | O=C(c1cnn(-c2nc3ccccc3s2)c1)c1ccccc1O | 12%
38 | Cn1c(N)c(C(=O)c2cc(-c3ccncc3)nc3ccccc23)c(=O)n(C)c1=O | 5.16%
39 | Cc1ccc(NC(=S)NNC(=O)c2ccccc2OC(F)F)cc1 | 4.3%
40 | CCN1CCN(C(=O)C(=O)c2cn(CC(=O)N(CC)CC)c3ccccc23)CC1 | 12.6%
41 | COc1cccc(OCCOc2ccccc2OC(C)C)c1 | 13%
42 | c1ccn2cc(C34CC5CC(CC(C5)C3)C4)nc2c1 | 2.86%
43 | Cl.O=C(NC(=S)NC1CCN(Cc2ccccc2)CC1)c1ccc(F)cc1 | -57.5%
